{"source": "PubChem BioAssay AID1030", "about": "(National Center for Advancing Translational Sciences (NCATS), 2008)", "note": "Values joined by “and” are separate entries in the source; they are usually repeats but may differ in a detail not shown here. Equal values may be shown once. Among all 220,000 compounds or so, about 16,000 (7.3%) were called active. This list was built around the results that the source calls inconclusive (neither active nor inactive); the mix of calls is not that of the screen. Calls follow the shape of the dose curve; as a rule, active = well fitted inhibition curve with a large enough effect (not every such curve was filed as active); inconclusive = small, poorly fitted or top-dose-only effect, or another doubt; inactive = no such curve, though single readings can be large or run the other way. Potencies of inconclusive entries are left out as doubtful fits. Some structures have more than one record in an assay (separate samples or runs), and their calls can disagree. Potency is read from the fitted curve at half-maximal effect; tags tell the direction and shape of the fitted curve."}
{"biological_target": "Aldehyde dehydrogenase 1A1 (Homo sapiens) (UniProt P00352)", "sequence (P00352 whole entry, looked up)": "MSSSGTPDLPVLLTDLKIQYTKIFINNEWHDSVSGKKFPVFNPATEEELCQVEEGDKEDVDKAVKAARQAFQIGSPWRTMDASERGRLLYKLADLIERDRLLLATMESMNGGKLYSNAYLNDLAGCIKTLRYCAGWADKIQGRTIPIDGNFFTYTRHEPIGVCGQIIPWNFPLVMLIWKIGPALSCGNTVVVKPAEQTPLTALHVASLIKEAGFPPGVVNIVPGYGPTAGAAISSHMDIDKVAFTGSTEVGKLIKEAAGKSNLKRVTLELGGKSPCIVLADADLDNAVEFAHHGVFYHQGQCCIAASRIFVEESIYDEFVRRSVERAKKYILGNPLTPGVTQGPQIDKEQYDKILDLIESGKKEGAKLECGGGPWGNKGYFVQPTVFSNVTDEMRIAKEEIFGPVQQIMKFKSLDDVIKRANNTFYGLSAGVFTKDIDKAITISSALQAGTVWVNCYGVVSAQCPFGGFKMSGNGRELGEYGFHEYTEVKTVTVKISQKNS", "assay": "qHTS Assay for Inhibitors of Aldehyde Dehydrogenase 1 (ALDH1A1)", "settings": "Purified ALDH1A1, NADH fluorescence, propionaldehyde substrate; series mostly up to 75.3 µM"}
{"smiles": "S=c1ccc2ccccc2[nH]1", "Potency": "active: 25.1 µM"}
{"smiles": "CCOC(=O)c1oc2ccccc2c1CSc1nnc(-c2ccco2)o1", "Potency": "inconclusive [inhibitor, partial curve]"}
{"smiles": "Cn1cccc1C(=O)N1CCC2(CCCN(Cc3ccncc3)C2)CC1", "Potency": "inconclusive [inhibitor, partial curve]"}
{"smiles": "COc1ccc(S(=O)(=O)N(CC(=O)N2CCN(c3ccccc3OC)CC2)c2ccccc2)cc1", "Potency": "active: 7.08 µM"}
{"smiles": "CCOC(=O)c1sc2nc(Cc3ccc(Cl)cc3)[nH]c(=S)c2c1C", "Potency": "inactive"}
{"smiles": "Cc1cc(C(=O)COc2ccc(Cl)cc2Br)c(C)n1C", "Potency": "inconclusive [inhibitor, single point]"}
{"smiles": "O=C(O)CC1(CC(=O)NCc2csc(-c3cccs3)n2)CCCCC1", "Potency": "inconclusive [inhibitor, partial curve]"}
{"smiles": "O=C(CSCc1cnn(-c2ccccc2)c1-n1cccc1)NCc1ccc2c(c1)OCO2", "Potency": "inconclusive [inhibitor, single point]"}
{"smiles": "O=C(c1cccc(F)c1)N1CCN(C2CCCCC2)CC1", "Potency": "inactive"}
{"smiles": "CC(C)OC(=O)/C(C#N)=C/c1ccc(-c2ccc(SC(F)F)cc2)o1", "Potency": "inconclusive [inhibitor, partial curve]"}
{"smiles": "O=C(O)c1ccccc1NC(=S)NC(=O)c1cccc2ccccc12", "Potency": "inconclusive [inhibitor, single point]"}
{"smiles": "O=C(CCS(=O)(=O)Cc1ccc(Cl)cc1)NCCCN1CCN(c2ccccc2F)CC1", "Potency": "inconclusive [inhibitor, single point]"}
{"smiles": "Cc1ccc(/C=C/C(=O)NCc2cccs2)o1", "Potency": "active: 3.98 µM"}
{"smiles": "CCSc1nnc(NC(=O)c2csc3c2CCCC3)s1", "Potency": "inconclusive [inhibitor, partial curve]"}
{"smiles": "Cc1ccc(CSC(Nc2ccc(F)cc2)=C(C#N)C#N)cc1", "Potency": "inconclusive [inhibitor, partial curve]"}
{"smiles": "COc1ccc(NC(=O)N2CC3(CCN(C(=O)c4cnccn4)CC3)C2)cc1", "Potency": "inactive"}
{"smiles": "CCn1cc(/C=C/C(=O)Nc2c(C)nn(Cc3ccccc3)c2C)cn1", "Potency": "inconclusive [inhibitor, single point]"}
{"smiles": "O=C(/C=C/c1ccco1)N1CCN(c2ccccc2)CC1", "Potency": "inconclusive [inhibitor, single point]"}
{"smiles": "O=c1c2c(nc3cc(-c4cccc(Cl)c4)[nH]n13)CCCC2", "Potency": "inconclusive [inhibitor, single point]"}
{"smiles": "CCCCN(CC)CCNC(=O)c1cc2c(C)nc3ccccc3c2o1", "Potency": "inactive"}
{"smiles": "O=C(CSc1nccn1-c1ccccc1)Nc1ccc2c(c1)OCO2", "Potency": "inconclusive [inhibitor, partial curve]"}
{"smiles": "CN(C)S(=O)(=O)c1cccc(NC(=O)c2cncc(Br)c2)c1", "Potency": "inconclusive [inhibitor, partial curve]"}
{"smiles": "O=C(Nc1ccccc1)c1cc2ccccc2c(=O)s1", "Potency": "inactive"}
{"smiles": "COc1ccc(/C=C/C(=O)N2CCCc3ccccc32)cc1", "Potency": "inconclusive [inhibitor, partial curve]"}
{"smiles": "O=C(NCc1ccco1)c1cccc(NS(=O)(=O)c2cccc(F)c2)c1", "Potency": "inconclusive [inhibitor, single point]"}
{"smiles": "CCOc1nc(CC)nc(NC(=O)NS(=O)(=O)c2ccccc2Cl)n1", "Potency": "inconclusive [inhibitor, single point]"}
{"smiles": "O=C(Cn1ncc2c(=O)oc3ccccc3c21)N1CCCc2ccccc21", "Potency": "inconclusive [inhibitor, single point]"}
{"smiles": "O=C1c2cccc3cccc(c23)C(=O)N1Cc1ccco1", "Potency": "inconclusive [inhibitor, single point]"}
{"smiles": "CN(C)S(=O)(=O)c1ccc(N2CCCC2)c(C(=O)Nc2nc(-c3ccc(F)c(F)c3)cs2)c1", "Potency": "inconclusive [inhibitor, partial curve]"}
{"smiles": "C=CCNC(=O)c1ccccc1CCc1ccccc1", "Potency": "inactive"}
{"smiles": "O=S(=O)(CCN1CCN(C(c2ccccc2)c2ccccc2)CC1)C(F)(F)F", "Potency": "active: 0.355 µM"}
{"smiles": "CCn1c(C)nc2cc(C(=O)N=Nc3c(O)[nH]c4ccccc34)ccc21", "Potency": "inactive"}
{"smiles": "Cc1cccc(N2CCN(c3ccc(N4C(=O)CCCC4=O)cc3[N+](=O)[O-])CC2C)c1", "note": "(stereo not drawn)", "Potency": "inconclusive [inhibitor, single point]"}
{"smiles": "N#CC1=C(N)SC(N)=C(C#N)C1c1ccc([N+](=O)[O-])cc1", "Potency": "active: 10 µM"}
{"smiles": "Cc1cccc(NC(=O)CC2Nc3cccc4cccc(c34)NC2=O)c1", "note": "(stereo not drawn)", "Potency": "inconclusive [inhibitor, partial curve, poor fit]"}
{"smiles": "C=CCNC(=O)C1CC(=O)N(c2ccc(C)cc2)C1", "note": "(stereo not drawn)", "Potency": "inconclusive [inhibitor, single point]"}
{"smiles": "O=C(CSc1nc2ccccc2[nH]1)N1CCN(c2ccc(F)cc2)CC1", "Potency": "active: 25.1 µM"}
{"smiles": "O=c1[nH]cnc2c([N+](=O)[O-])cccc12", "Potency": "inactive"}
{"smiles": "COc1cc(-c2nnc(COc3ccc4cc(Br)ccc4c3)o2)cc(OC)c1OC", "Potency": "inactive"}
{"smiles": "O=C(CSc1ccccc1C(=O)NCc1ccccc1)NC12CC3CC(CC(C3)C1)C2", "Potency": "inactive"}
{"smiles": "COC(=O)[C@@]1(Cc2ccc(F)cc2)[C@H]2c3cc(C(=O)N4CCCC4)n(Cc4ccc(Cl)c(C(F)(F)F)c4)c3C[C@H]2CN1C(=O)c1ccccc1", "Potency": "inactive"}
{"smiles": "CCCCNC(=O)c1onc(CSc2ccccc2CC)c1C(=O)O", "Potency": "inactive"}
{"smiles": "CC1(O)CC(=O)N(c2ccccc2)O1", "note": "(stereo not drawn)", "Potency": "active: 22.4 µM"}
{"smiles": "CCCn1c(-c2ccc(OC)cc2)nc2c(=O)n(C)c(=O)[nH]c21", "Potency": "inconclusive [inhibitor, partial curve]"}
{"smiles": "CCCC1=NN(c2ccc([N+](=O)[O-])cc2)C(=O)/C1=C/N(C)C", "Potency": "inconclusive [inhibitor, single point]"}
{"smiles": "COc1cccc(OCCCN2CCCCCC2)c1", "Potency": "active: 14.1 µM"}
{"smiles": "Cc1cc(/C=C2/C(=O)N(C)C(=S)N2C)c(C)n1C1CC1", "Potency": "inconclusive [inhibitor, single point]"}
{"smiles": "O=C(Cc1c(O)c2ccccc2[nH]c1=O)NCc1ccccc1", "Potency": "inconclusive [inhibitor, single point]"}
{"smiles": "O=[n+]1cc(-c2cc3ccccc3o2)n([O-])c2c1CCCC2", "Potency": "inconclusive [inhibitor, single point]"}
{"smiles": "O=C(COC(=O)C12CC3CC(CC(C3)C1)C2)NCCCc1ccccc1", "Potency": "inconclusive [inhibitor, partial curve]"}
{"smiles": "COc1ccc(S(=O)(=O)N(C)CC(=O)Nc2ccc3c(c2)OCCO3)cc1OC", "Potency": "inconclusive [inhibitor, single point]"}
{"smiles": "N[C@@H](Cc1c[nH]c2ccc(O)cc12)C(=O)O", "Potency": "inactive and active: 28.2 µM"}
{"smiles": "CCCOC(=O)C1=C(C)OC23OC(N)=C(C#N)C12C(=O)c1ccccc13", "note": "(stereo not drawn)", "Potency": "inconclusive [inhibitor, single point]"}
{"smiles": "Cn1c(-c2cccs2)[n+](C)c2ccccc21", "Potency": "inconclusive [inhibitor, single point]"}
{"smiles": "O=C(CCCCCN1C(=O)c2ccccc2C1=O)Nc1ccc(F)cc1", "Potency": "inconclusive [inhibitor, partial curve]"}
{"smiles": "O=C(Cc1ccc(Cl)cc1)c1c(O)cc(O)cc1O", "Potency": "inactive"}
{"smiles": "CN(C)c1ncc2nc(-c3ccccc3)c(=O)n(CCc3ccccc3)c2n1", "Potency": "inconclusive [inhibitor, partial curve]"}
{"smiles": "COc1ccc(Nc2nc(-c3ccc4c(c3)NC(=O)CO4)cs2)cc1", "Potency": "inconclusive [inhibitor, single point]"}
{"smiles": "CC(C)OC(=O)c1nn2c(C(F)(F)F)cc(-c3ccco3)nc2c1Cl", "Potency": "inconclusive [inhibitor, single point]"}
{"smiles": "O=C(NC(NC(=S)Nc1cc(Cl)ccc1Cl)C(Cl)(Cl)Cl)c1ccco1", "note": "(stereo not drawn)", "Potency": "active: 8.91 µM"}
{"smiles": "CNC(=S)NNC(=O)c1sc2cc(C(F)(F)F)cnc2c1-c1ccccn1", "Potency": "inconclusive [inhibitor, single point]"}
{"smiles": "COc1ccc2cc(/C=N/NC(=O)CN(c3ccccc3)S(=O)(=O)c3ccccc3)c(Cl)nc2c1", "Potency": "inconclusive [inhibitor, partial curve]"}
{"smiles": "CN(C)c1ncc2ncc(=O)n(C)c2n1", "Potency": "inconclusive [inhibitor, single point]"}
{"smiles": "CC(C)NC(=O)NC(=O)COC(=O)Cc1ccsc1", "Potency": "active: 14.1 µM"}
{"smiles": "Nc1cc(=O)[nH]c(SCC(=O)Nc2ncc(C(F)(F)F)cc2Cl)n1", "Potency": "inactive"}
{"smiles": "O=Cc1cccn1-c1ccc2ccccc2c1", "Potency": "inconclusive [inhibitor, single point]"}
{"smiles": "Cc1ccc(-c2csc(NC(=O)Cc3ccc(F)cc3)n2)o1", "Potency": "active: 3.55 µM"}
{"smiles": "CCOC(=O)COc1ccc(S(=O)(=O)NCCC2=CCCCC2)cc1", "Potency": "active: 31.6 µM"}
{"smiles": "O=C(NCc1ccccc1)c1ccc(CSc2ccccc2)o1", "Potency": "inconclusive [inhibitor, single point]"}
{"smiles": "CCC(=O)N1CCC(c2ccc(OC)cc2)=N1", "Potency": "inconclusive [inhibitor, single point]"}
{"smiles": "NNc1nc(NCc2ccccc2)nc(N2CCOCC2)n1", "Potency": "inconclusive [inhibitor, partial curve, poor fit]"}
{"smiles": "O=C(c1ccccc1C(=O)N(c1ccccc1)c1ccccc1)N1CCCCC1", "Potency": "inactive"}
{"smiles": "O=C(Oc1ccc2c(=O)c(Cl)coc2c1)c1ccncc1", "Potency": "inconclusive [inhibitor, partial curve]"}
